Here are results for 9 test systems from the supplement of paper PMC10724272.

Common to all, as to assay: CLSI broth microdilution.
Compound in assay [1]: CCC(C)n1ncn(-c2ccc(N3CCN(c4ccc(OCC5COC(Cn6cncn6)(c6ccc(Cl)cc6Cl)O5)cc4)CC3)cc2)c1=O [itraconazole]
Compound in assay [2]: OC(Cn1cncn1)(Cn1cncn1)c1ccc(F)cc1F [fluconazole]
Compound in assay [3]: CCCCCOc1ccc(-c2ccc(-c3ccc(C(=O)N[C@H]4C[C@@H](O)[C@@H](O)NC(=O)[C@@H]5[C@@H](O)[C@@H](C)CN5C(=O)[C@H]([C@@H](C)O)NC(=O)[C@H]([C@H](O)[C@@H](O)c5ccc(O)cc5)NC(=O)[C@@H]5C[C@@H](O)CN5C(=O)[C@H]([C@@H](C)O)NC4=O)cc3)cc2)cc1 [anidulafungin]
Compound in assay [4]: Nc1[nH]c(=O)ncc1F [flucytosine]
Compound in assay [5]: CCCCCOc1ccc(-c2cc(-c3ccc(C(=O)N[C@H]4C[C@@H](O)[C@@H](O)NC(=O)[C@@H]5[C@@H](O)[C@@H](C)CN5C(=O)[C@H]([C@H](O)CC(N)=O)NC(=O)[C@H]([C@H](O)[C@@H](O)c5ccc(O)c(OS(=O)(=O)O)c5)NC(=O)[C@@H]5C[C@@H](O)CN5C(=O)[C@H]([C@@H](C)O)NC4=O)cc3)no2)cc1 [micafungin]
Compound in assay [6]: C[C@@H]1[C@H](O)[C@@H](C)/C=C/C=C/C=C/C=C/C=C/C=C/C=C/[C@H](O[C@@H]2O[C@H](C)[C@@H](O)[C@H](N)[C@@H]2O)C[C@@H]2O[C@](O)(C[C@@H](O)C[C@@H](O)[C@H](O)CC[C@@H](O)C[C@@H](O)CC(=O)O[C@H]1C)C[C@H](O)[C@H]2C(=O)O [amphotericin B]
Compound in assay [7]: CC[C@H](C)C[C@H](C)CCCCCCCCC(=O)N[C@H]1C[C@@H](O)[C@@H](NCCN)NC(=O)[C@@H]2[C@@H](O)CCN2C(=O)[C@H]([C@H](O)CCN)NC(=O)[C@H]([C@H](O)[C@@H](O)c2ccc(O)cc2)NC(=O)[C@@H]2C[C@@H](O)CN2C(=O)[C@H]([C@@H](C)O)NC1=O [caspofungin]
Compound in assay [8]: C[C@@H](c1ncncc1F)[C@](O)(Cn1cncn1)c1ccc(F)cc1F [voriconazole]
Compound in assay [9]: CC[C@@H]([C@H](C)O)n1ncn(-c2ccc(N3CCN(c4ccc(OC[C@@H]5CO[C@@](Cn6cncn6)(c6ccc(F)cc6F)C5)cc4)CC3)cc2)c1=O [posaconazole]

MIC of invasive clinical C. tropicalis isolates, CLSI broth microdilution (fluconazole 0.12-256 mg/L, up to 1,024 for the azole-resistant cluster and its neighbour group; other ranges not stated); higher = less susceptible. Call: susceptible or wild type [S] / resistant or non-wild type [R] by CLSI breakpoints or cut-offs; intermediate and dose-dependent carry no call. '<=' and '>=' at the end values are inferred; the source marks only some of them. Isolates are numbered anew.

In general, MIC refers to the lowest concentration that inhibits growth of the organism.

Take “Candida tropicalis isolate 23 (ERG11 copies: 2, Erg11p: no key change)”: the MIC in assay [1] was 0.25 mg/L [S]; in assay [2], 1 mg/L [S]; in assay [3], 0.25 mg/L [S]; in [4], ≤ 0.06 mg/L [S]; in [5], 0.03 mg/L [S]; in assay [6], 1 mg/L [S]. Further, the values for the MIC in [7], in [8] and in assay [9] were 0.06 mg/L [S], 0.25 µg/mL and 0.25 mg/L [S], respectively.

For “Candida tropicalis isolate 376 (ERG11 copies: 2, Erg11p: no key change)”, the MIC in assay [1] amounted to 0.5 mg/L [S]; in assay [2] it was 2 mg/L [S]; in assay [3], 0.12 mg/L [S]; in assay [4], 0.12 mg/L [S]; in assay [5], 0.06 mg/L [S]; in assay [6], 0.5 mg/L [S]. The figures for the MIC in assay [7], in [8] and in [9] were 0.06 mg/L [S], 0.12 mg/L [S] and 0.5 mg/L [R], respectively.

Consider “Candida tropicalis isolate 262 (ERG11 copies: 2, Erg11p: no key change)”, for which the MIC in assay [1] is 0.25 mg/L [S]; in assay [2] it was 1 mg/L [S]; in assay [3] it was 0.03 mg/L [S]; in assay [4], ≤ 0.06 mg/L [S]; in assay [5] it was 0.03 mg/L [S]; in assay [6], 1 mg/L [S]. The MIC worked out at 0.03 mg/L [S] in [7], 0.12 mg/L [S] in [8] and 0.25 mg/L [S] in [9].

Regarding “Candida tropicalis isolate 407 (ERG11 copies: 2, Erg11p: no key change)”, the MIC in assay [1] was 0.5 mg/L [S]; in assay [2], 2 mg/L [S]; in assay [3], 0.03 mg/L [S]; in [4], ≤ 0.06 mg/L [S]; in assay [5], 0.03 mg/L [S]; in assay [6] it was 2 mg/L [S]. In addition, the MIC in assay [7] came to 0.03 mg/L [S]; in assay [8], 0.5 µg/mL; in assay [9], 0.5 mg/L [R].

Consider “Candida tropicalis isolate 345 (ERG11 copies: 2, Erg11p: no key change)”, for which the MIC in assay [1] is 0.25 mg/L [S]; in assay [2], 2 mg/L [S]; in [3], 0.06 mg/L [S]; in assay [4], ≤ 0.06 mg/L [S]; in assay [5] it was 0.03 mg/L [S]; in assay [6] it was 1 mg/L [S]. For the same test system, the values for the MIC in assay [7], in assay [8] and in assay [9] were 0.03 mg/L [S], 0.12 mg/L [S] and 0.25 mg/L [S], respectively.

In the case of “Candida tropicalis isolate 326 (ERG11 copies: 4, Erg11p: Y132F, S154F (heterozygous))”, the MIC is 0.25 mg/L [S] in assay [1]; 128 mg/L [R] in assay [2]; 0.06 mg/L [S] in assay [3]; ≤ 0.06 mg/L [S] in assay [4]; 0.03 mg/L [S] in assay [5]; 1 mg/L [S] in assay [6]. Also, the MIC is 0.06 mg/L [S] in [7], ≥ 8 mg/L [R] in assay [8] and 0.5 mg/L [R] in [9].

On to “Candida tropicalis isolate 179 (ERG11 copies: 6, Erg11p: Y132F, S154F (heterozygous))”, for which the MIC in [1] was 0.25 mg/L [S]; in [2], 256 mg/L [R]; in assay [3] it was 0.03 mg/L [S]; in assay [4] it was ≤ 0.06 mg/L [S]; in assay [5], 0.03 mg/L [S]; in [6], 1 mg/L [S]. The MIC is 0.015 mg/L [S] in assay [7], ≥ 8 mg/L [R] in assay [8] and 0.25 mg/L [S] in [9].

Consider “Candida tropicalis isolate 71 (ERG11 copies: 2, Erg11p: no key change)”, for which the MIC is 0.5 mg/L [S] in assay [1]; 4 µg/mL in assay [2]; ≤ 0.015 mg/L [S] in assay [3]; ≤ 0.06 mg/L [S] in assay [4]; 0.03 mg/L [S] in assay [5]; 1 mg/L [S] in [6]. The MIC is 0.015 mg/L [S] in [7], 0.5 µg/mL in [8] and 0.5 mg/L [R] in [9].

For “Candida tropicalis isolate 127 (ERG11 copies: 2, Erg11p: no key change)”, the MIC is 0.12 mg/L [S] in [1]; 2 mg/L [S] in assay [2]; 0.06 mg/L [S] in [3]; ≤ 0.06 mg/L [S] in [4]; 0.03 mg/L [S] in [5]; 1 mg/L [S] in assay [6]. The values for the MIC in assay [7], in [8] and in [9] were 0.03 mg/L [S], 0.06 mg/L [S] and 0.12 mg/L [S], respectively.
